# In publication PMC4336329 (PLoS ONE, 2015):
# Among all 310,000 compounds or so, about 2,200 (0.71%) showed an effect of 50% or more. The effect is printed as a negative number. Some of the results follow.
# Molecular target: human ether-à-go-go-related gene (hERG) potassium channel (human, UniProt Q12809)
# Assay: primary screen, population patch clamp on CHO cells stably expressing hERG
# Chain of human ether-à-go-go-related gene (hERG) potassium channel (Q12809 whole entry, looked up): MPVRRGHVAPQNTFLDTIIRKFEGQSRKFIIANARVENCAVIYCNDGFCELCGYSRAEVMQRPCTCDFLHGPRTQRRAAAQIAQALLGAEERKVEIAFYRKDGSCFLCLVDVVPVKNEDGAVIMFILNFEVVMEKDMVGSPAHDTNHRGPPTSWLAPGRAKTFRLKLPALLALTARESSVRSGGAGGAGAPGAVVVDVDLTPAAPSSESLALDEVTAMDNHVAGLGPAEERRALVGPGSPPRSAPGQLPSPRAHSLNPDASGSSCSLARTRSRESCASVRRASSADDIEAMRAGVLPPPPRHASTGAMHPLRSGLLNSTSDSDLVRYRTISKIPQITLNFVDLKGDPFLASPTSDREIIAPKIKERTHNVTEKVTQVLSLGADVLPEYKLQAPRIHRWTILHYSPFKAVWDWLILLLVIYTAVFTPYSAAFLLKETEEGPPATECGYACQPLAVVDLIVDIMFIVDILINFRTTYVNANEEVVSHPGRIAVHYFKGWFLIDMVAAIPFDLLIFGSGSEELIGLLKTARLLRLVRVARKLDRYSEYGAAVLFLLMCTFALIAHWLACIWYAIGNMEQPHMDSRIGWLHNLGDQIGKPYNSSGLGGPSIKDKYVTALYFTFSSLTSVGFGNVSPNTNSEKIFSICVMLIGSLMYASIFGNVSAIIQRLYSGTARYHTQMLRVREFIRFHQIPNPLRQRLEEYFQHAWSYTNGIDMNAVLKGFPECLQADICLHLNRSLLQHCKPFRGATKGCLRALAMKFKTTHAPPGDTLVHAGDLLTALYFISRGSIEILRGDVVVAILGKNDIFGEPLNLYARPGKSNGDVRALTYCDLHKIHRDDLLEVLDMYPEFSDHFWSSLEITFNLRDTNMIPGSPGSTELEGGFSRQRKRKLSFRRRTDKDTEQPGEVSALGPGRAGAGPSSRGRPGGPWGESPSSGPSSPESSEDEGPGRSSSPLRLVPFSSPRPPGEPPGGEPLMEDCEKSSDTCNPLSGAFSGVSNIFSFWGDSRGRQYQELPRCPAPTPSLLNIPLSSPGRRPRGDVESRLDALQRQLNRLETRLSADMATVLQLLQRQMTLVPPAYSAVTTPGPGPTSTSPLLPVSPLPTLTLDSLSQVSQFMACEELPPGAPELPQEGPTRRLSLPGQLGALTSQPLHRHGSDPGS
row,SMILES,"hERG current change (%, negative = inhibition) at 1uM"
1,Cc1ccc(N2C(=O)NC(=O)/C(=C/c3cnn(-c4ccc(C)cc4)c3)C2=O)cc1,16.3%
2,CCOc1cc(/C=N/NC(=O)c2ccccc2-n2cccc2)ccc1O,3.65%
3,CCS(=O)(=O)N1CCCC(C(=O)NCCCN2CCCC2=O)C1 (stereo not shown),9.12%
4,Cc1ccc(S(=O)(=O)c2cc3ccccc3nc2N)cc1,13.5%
5,CCc1nccn1CCC(=O)NC1CCCc2c1cnn2-c1ccc(F)cc1F (stereo not shown),16%
6,Cc1cc(-c2nnc(CCC(=O)NC(c3ccccc3)c3ccccc3)o2)no1,20.9%
7,CC(OC(=O)CCN=C1NS(=O)(=O)c2ccccc21)C(=O)Nc1ccc(S(N)(=O)=O)cc1 (stereo not shown),9.22%
8,O=C(O)C(=O)O.O=[N+]([O-])c1ccc(OCCN2CCNCC2)cc1,-52.2%
9,O=C(CSc1ncccn1)NC1CCCc2ccccc21 (stereo not shown),-4.43%
10,CN1CCc2c(sc(NC(=O)c3ccco3)c2C(N)=O)C1.Cl,0.183%
11,Cc1ccn2cc(-c3ccc4c(c3)NC(=O)CO4)nc2c1.Cl,9.06%
12,Cc1ccc(NC(=O)CCCc2ccccc2)nc1,5.65%
13,O=C(CSc1cccc[n+]1[O-])c1ccccc1Br,12%
14,CCCC(CCC(=O)Nc1ccc(C(=O)OCC)cc1)C(=O)O (stereo not shown),12%
15,O=S(=O)(Nc1ccccn1)c1cc(Cl)ccc1Cl,7.72%
16,O=C(NCC(c1ccco1)N1CCCC1)c1cccc(NS(=O)(=O)c2ccc(Br)cc2)c1 (stereo not shown),-2.58%
17,CCOC(=O)N1CCC(NC(=O)COc2cc(=O)n(C)c3ccccc23)CC1,13%
18,COc1ccccc1-n1c(SCC(=O)Nc2ccccc2F)nc2[nH]ncc2c1=O,-11.4%
19,O=C(NCc1ccncc1)C1CCN(C(=O)c2cccc(Cl)c2)CC1,4.95%
20,Cc1cc(C)c(S(=O)(=O)c2ccccc2)c(=O)[nH]1,16.6%

row,SMILES,"hERG current change (%, negative = inhibition) at 1uM"
1,O/N=C/c1cccnc1Sc1ccccc1,6.86%
2,O=C(Nc1ccc(N2CCOCC2)cc1)c1cccc(S(=O)(=O)N2CCCC2)c1,3.25%
3,Cn1nc(C(C)(C)C)c([N+](=O)[O-])c1C(=O)N1CCCCCC1,15.5%
4,CC(=O)c1ccc(OCc2ccccc2)c(C)c1O,11.1%
5,Cc1cccnc1Nc1nc(-c2ccc(O)c(O)c2)cs1,10.2%
6,COCCN(C(=O)C1CC(=O)N(Cc2ccc(C)cc2)C1)c1c(N)n(CC(C)C)c(=O)[nH]c1=O (stereo not shown),2.18%
7,CSCCC(NC(=O)c1cc([N+](=O)[O-])ccc1Cl)C(=O)O (stereo not shown),9.35%
8,CCOc1ccc(Nc2nc3c(c(=O)[nH]2)CCC3)cc1,6.36%
9,Cc1ccc(S(=O)(=O)NCc2nnc(SCC(=O)Nc3cccc(C)c3C)n2C)cc1,-0.801%
10,CCC(=O)N1CCc2cc(S(=O)(=O)CCC(=O)NCc3ccco3)ccc21,10.2%
11,O=C(NCCC1=CCCCC1)C1CCN(S(=O)(=O)c2ccccc2C(F)(F)F)CC1,11.9%
12,CN(CC(=O)N1CC=C(c2ccccc2)CC1)S(=O)(=O)c1cnc[nH]1,4.99%
13,O=[N+]([O-])c1ccc(NCCCO)c(C(F)(F)F)c1,12.5%
14,CSc1ncccc1C(=O)Nc1ccc(C)cn1,9.49%
15,Cc1nc(-c2ccccc2)sc1C(N)=O,14.6%
16,Cc1cc(NC(=O)CS(=O)(=O)Cc2ccccc2)no1,10.1%
17,O=CN1CCN(C(C(=O)NC2CCCCC2)c2cc3c(cc2[N+](=O)[O-])OCO3)CC1 (stereo not shown),16.4%
18,CCCCCOC(=O)CSc1nnc(-c2cc(OC)c(OC)c(OC)c2)o1,7.18%
19,COc1ccc(S(=O)(=O)N(C)CC(=O)Nc2ccccc2C(F)(F)F)cc1OC,9.7%
20,O=C1CCCC/C1=C\Nc1ccc(C(=O)O)c(O)c1,11.5%

row,SMILES,"hERG current change (%, negative = inhibition) at 1uM"
1,CCOc1ccc(C(=S)N2CCCC2)cc1OCC,12.7%
2,O=[N+]([O-])c1cc(/C=N/O)ccc1Oc1cccc(Cl)c1,6.79%
3,CCN(CC(=O)Nc1c(F)cccc1F)C(=O)/C=C/c1ccc(C)o1,22.2%
4,Cc1onc(-c2ccccc2)c1C(=O)NC(C)c1ccc2c(c1)OCO2 (stereo not shown),8.07%
5,O=C(NCCc1ccc(F)cc1)Nc1ccccc1,2.25%
6,O=C(c1ccc([N+](=O)[O-])o1)N1CCN(c2nc3ccc(F)cc3s2)CC1,-9.65%
7,Cc1cc(-c2nnc(CCC(=O)N(C)Cc3cccc4ccccc34)o2)no1,-6.91%
8,O=C(Oc1ccccc1)n1c(=S)oc2ccccc21,12.8%
9,CC1(C(=O)O)Sc2[nH]c(=O)sc2C2c3ccccc3OC(=O)C21 (stereo not shown),15.7%
10,CCOC(=O)CCc1c(C)nc(SCCN2CCCC2)c(C#N)c1C,-19.8%
11,CC1CCCC(C)N1C(=O)CSc1ccc(-c2ccc3c(c2)OCCO3)nn1 (stereo not shown),-1.69%
12,COc1ccc(C)cc1NC(=O)Cn1cnc2sc(C)c(S(=O)(=O)N3CCOCC3)c2c1=O,10.3%
13,Cc1ccc2c(c1)c1c3n2CCN(CCC(=O)O)C3CCC1 (stereo not shown),9.52%
14,COc1cc(OC)c(NC(=O)c2sc3ncn(CC(=O)N4CCOCC4)c(=O)c3c2C)cc1Cl,14.4%
15,Cc1ccc(S(=O)(=O)N2CCCN(S(=O)(=O)c3ccc4ccccc4c3)CC2)cc1,11.3%
16,CC1C(=O)N2CCCc3cc(NC(=O)C(=O)NCCN4CCOCC4)cc1c32 (stereo not shown),12.2%
17,O=S(=O)(NC1=NCCCCC1)c1ccc(F)cc1,8.98%
18,COc1ccc(NS(=O)(=O)c2ccc(C)c(C(=O)NCc3cccnc3)c2)cc1,7.85%
